Lines with a small IC50 respond at low doses; a limit (>, <) means that the fit lies beyond the doses tested. The AUC spans the tested range (256-fold, ending at the top dose) of the same fit; it is 1 without any effect and falls as sensitivity rises. For some assays here: The top dose, if marked as inferred, comes from the curve model; the source does not state it. For some assays here: An entry number marks a drug with two screens in the source, which often give different values.
How the values were obtained:
Assay in all cases: Viability of human cancer cell lines after 72 h of drug (GDSC screen)
Tretinoin = compound: CC1=C(/C=C/C(C)=C/C=C/C(C)=C/C(=O)O)C(C)(C)CCC1 [Tretinoin]; conditions: top dose 10 µM; top dose inferred
Method: (§1)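 Human cancer cell lines in 384-well plates, medium with 10% serum, drug for 72 h over a 256-fold dose range (nine 2-fold or five 4-fold steps up to the top dose). Adherent lines were fixed and stained with the nucleic acid dye Syto60, suspension lines read with resazurin; signal relative to control wells, capped at 0 and 100%. One two-parameter sigmoid per drug and line, fitted in a mixed model over all curves with the slope shared within a line.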

GSK690693 = compound: CCn1c(-c2nonc2N)nc2c(C#CC(C)(C)O)ncc(OC[C@H]3CCCNC3)c21 [GSK690693]; conditions: top dose 10.24 µM; top dose inferred
Method: as §1

UNC0638 = compound: COc1cc2c(NC3CCN(C(C)C)CC3)nc(C3CCCCC3)nc2cc1OCCCN1CCCC1 [UNC0638]
Method: as §1

SB-505124 = compound: Cc1cccc(-c2[nH]c(C(C)(C)C)nc2-c2ccc3c(c2)OCO3)n1 [SB-505124]; conditions: top dose 10 µM; top dose inferred
Method: as §1

BX-795 = compound: O=C(NCCCNc1nc(Nc2cccc(NC(=O)N3CCCC3)c2)ncc1I)c1cccs1 [BX-795]; conditions: top dose 5 µM; top dose inferred
Method: as §1

PI-103 = compound: Oc1cccc(-c2nc(N3CCOCC3)c3oc4ncccc4c3n2)c1 [PI-103]; conditions: top dose 10.24 µM
Method: as §1

[1] = top dose 20 µM, screen: GDSC drug entry 1236, top dose inferred
[2] = top dose 40 µM, screen: GDSC drug entry 245

Cell Line	AUC (Tretinoin)	IC50 (Tretinoin) [µM]	AUC (GSK690693)	IC50 (GSK690693) [µM]	AUC (UNC0638; [1])	IC50 (UNC0638; [1]) [µM]	AUC (UNC0638; [2])	IC50 (UNC0638; [2]) [µM]	AUC (SB-505124)	IC50 (SB-505124) [µM]	AUC (BX-795)	IC50 (BX-795) [µM]	AUC (PI-103)	IC50 (PI-103) [µM]
FADU (head and neck, adherent)	0.988	> 10	0.988	> 10.2	0.953	> 20	0.97	> 40	0.983	> 10	0.884	> 5	0.902	> 10.2
FLO-1 (oesophagus, adherent)	0.967	> 10	0.932	> 10.2	0.826	> 20	0.837	> 40	0.954	> 10	0.804	3.98	0.6	1.36
FTC-133 (thyroid, adherent)	0.966	> 10	0.983	> 10.2	0.967	> 20	0.979	> 40	0.964	> 10	0.831	3.6	0.819	6.6
FU97 (stomach, adherent)	0.895	> 10	0.942	> 10.2	0.984	> 20	0.862	35.8	0.962	> 10	0.85	3.98	0.986	> 10.2
FU-OV-1 (ovary, adherent)	0.972	> 10	0.982	> 10.2	0.978	> 20	0.912	> 40	0.941	> 10	0.973	> 5	0.559	0.978
G-292 Clone A141B1 (osteosarcoma, adherent)	0.448	0.415	0.975	> 10.2	0.898	> 20	0.813	> 40	0.971	> 10	0.749	2.56	0.44	0.399
G-361 (melanoma, adherent)	0.988	> 10	0.988	> 10.2	0.824	11.3	0.648	6.31	0.961	> 10	0.945	> 5	0.98	> 10.2
G-401 (kidney, adherent)	0.959	> 10	0.89	> 10.2	0.811	11.9	0.763	15.7	0.948	> 10	0.813	3.04	0.458	0.487
G-402 (soft tissue, adherent)	0.888	> 10	0.935	> 10.2	0.718	6.44	0.724	13.6	0.789	6.11	0.747	2.08	0.45	0.448
GMS-10 (glioma, adherent)	0.977	> 10	0.988	> 10.2	0.903	> 20	0.887	> 40	0.987	> 10	0.852	3.8	0.926	> 10.2
H4 (glioma, adherent)	0.965	> 10	0.943	> 10.2	0.822	11.5	0.848	29.1	0.985	> 10	0.691	1.07	0.68	2.03
H290 (mesothelioma, adherent)	0.989	> 10	0.989	> 10.2	0.82	10.2			0.962	> 10	0.855	3.47	0.923	> 10.2
H513 (mesothelioma, semi-adherent)	0.985	> 10	0.984	> 10.2	0.892	> 20	0.924	> 40	0.984	> 10	0.968	> 5	0.807	6.66
H2369 (mesothelioma, adherent)	0.98	> 10	0.982	> 10.2	0.85	15.9	0.792	18.8	0.979	> 10	0.93	> 5	0.979	> 10.2
H2373 (mesothelioma, adherent)	0.963	> 10	0.952	> 10.2	0.98	> 20	0.847	> 40	0.962	> 10	0.885	> 5	0.799	6.45
H2461 (mesothelioma, adherent)	0.983	> 10	0.983	> 10.2	0.714	5.93	0.779	20.7	0.951	> 10	0.922	> 5	0.979	> 10.2

Cell Line	AUC (Tretinoin)	IC50 (Tretinoin) [µM]	AUC (GSK690693)	IC50 (GSK690693) [µM]	AUC (UNC0638; [1])	IC50 (UNC0638; [1]) [µM]	AUC (UNC0638; [2])	IC50 (UNC0638; [2]) [µM]	AUC (SB-505124)	IC50 (SB-505124) [µM]	AUC (BX-795)	IC50 (BX-795) [µM]	AUC (PI-103)	IC50 (PI-103) [µM]
H2595 (mesothelioma, adherent)	0.934	> 10	0.963	> 10.2	0.85	> 20	0.72	13.6	0.948	> 10	0.785	3.12	0.944	> 10.2
H2731 (mesothelioma, adherent)	0.971	> 10	0.944	> 10.2	0.798	11.1	0.425	1.52	0.96	> 10	0.864	> 5	0.846	9.16
H2795 (mesothelioma, adherent)	0.75	3.22	0.987	> 10.2	0.855	15.6	0.714	9.94	0.986	> 10	0.862	4.2	0.848	7.48
H2869 (mesothelioma, adherent)	0.984	> 10	0.925	> 10.2	0.887	> 20	0.803	25.7	0.982	> 10	0.946	> 5	0.893	> 10.2
H3118 (head and neck, adherent)	0.847	8.41	0.979	> 10.2	0.633	3.01	0.749	14	0.955	> 10	0.885	> 5	0.48	0.56
H3255 (lung adenocarcinoma, adherent)	0.963	> 10	0.969	> 10.2	0.843	18.4	0.852	> 40	0.975	> 10	0.916	> 5	0.855	> 10.2
HARA (lung squamous cell carcinoma, adherent)	0.943	> 10	0.85	9.85	0.832	15.9	0.677	8.54	0.981	> 10	0.837	4.19	0.334	0.203
HCC38 (breast, adherent)	0.986	> 10	0.977	> 10.2	0.914	> 20	0.777	17.5	0.898	> 10	0.908	> 5	0.565	0.978
HCC1143 (breast, adherent)	0.98	> 10	0.967	> 10.2	0.758	9.62	0.937	> 40	0.969	> 10	0.882	> 5	0.766	5.31
HCC1395 (breast, adherent)	0.984	> 10	0.948	> 10.2	0.728	6.44	0.665	7.92	0.971	> 10	0.951	> 5	0.868	> 10.2
HCC1419 (breast, adherent)	0.801	7.48	0.885	> 10.2	0.823	19.2	0.829	> 40	0.98	> 10	0.956	> 5	0.715	3.39
HCC1428 (breast, adherent)	0.879	> 10	0.988	> 10.2	0.848	17.1	0.795	20.6	0.952	> 10	0.97	> 5	0.854	9.25
HCC1500 (breast, adherent)	0.896	> 10	0.958	> 10.2	0.79	9.26	0.703	9.56	0.961	> 10	0.978	> 5	0.618	1.37
HCC1569 (breast, adherent)	0.949	> 10	0.724	3.47	0.774	10.6	0.792	25.3	0.93	> 10	0.927	> 5	0.332	0.186
HCC1937 (breast, adherent)	0.982	> 10	0.871	> 10.2	0.859	> 20	0.778	18.8	0.983	> 10	0.973	> 5	0.615	1.39
HCC1954 (breast, adherent)	0.969	> 10	0.656	1.87	0.846	18.3	0.843	35.6	0.971	> 10	0.944	> 5	0.938	> 10.2
